Results: paper PMC12040169 (PLOS Biology, 2025)
The other results are listed elsewhere or left out.

System: T1, C. trachomatis L2/434/Bu expressing GFP (CTL2-GFP)
T1 construct: L2/434/Bu GFP intracellular growth in HeLa cells
Parameters: species or system HeLa; C. trachomatis total inclusion area by high-content imaging, normalised to DMSO
Details: total inclusion area; 28.5 h, 10 µM; inhibitor
Outline: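 Imaging read-out: GFP inclusions and Hoechst nuclei captured by high-content imaging after fixation. Inclusion area/number = chlamydial growth; nuclei count = host cell viability. MIC calculated per earlier method.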

Point of comparison: `COc1ccc([C@@]23CC[C@@H](C(=O)Nc4ccc(C(F)(F)F)cn4)C[C@@H]2N(C)CC3)cc1OC` [CBK046310T], “% of control remaining” value 91.6901. Against it:
- OC(COc1ccc(-c2ccccc2)cc1)CN1CCN(Cc2ccccc2)CC1 (stereo not shown) [CBK074855C] — lower, 78.6728
- Cc1cccn2cc(C(=O)NCCCn3cccn3)nc12 [CBK281749] — higher, 110.29
- N#C/C(=C\Nc1ccc(S(N)(=O)=O)cc1)c1nc(-c2cccc([N+](=O)[O-])c2)cs1 [CBK262366] — higher, 105.462
- CC(=O)Nc1ccc(N2C(=O)c3ccc(S(=O)(=O)c4ccc5c(c4)C(=O)N(c4ccc(NC(C)=O)cc4)C5=O)cc3C2=O)cc1 [CBK262105] — higher, 99.4118
- CCn1c(C)nc2cc(NC(=O)Cc3c(C)noc3C)ccc21 [CBK281834] — higher, 97.821
- Cc1cc(NC(=O)c2cc(Cl)ccc2[N+](=O)[O-])nc2c1c(=O)oc1ccccc12 [CBK291248] — higher, 105.347
- O=S(=O)(c1ccc(Cl)cc1)N1CCN(CC(O)Cn2c3ccccc3c3ccccc32)CC1 (stereo not shown) [CBK264383] — higher, 113.631
- COc1cccc([C@H]2CN(C(C)=O)[C@@H]3CCN(C4CCCC4)C[C@H]23)c1 [CBK283375] — lower, 84.9293
- O=C(NCc1ccccc1)c1ccc(N2CCOCC2)nc1 [CBK200244] — higher, 124.55
- CCCCCCN1CCN(c2nccn(CCOc3cc(F)c(F)cc3F)c2=O)CC1 [CBK045889C] — lower, 58.7501
- CC(=O)N1CCCc2cc(C(O)CN3CCCC(C)C3)ccc21 (stereo not shown) [CBK282142] — higher, 106.323
- Cc1ccc(S(=O)(=O)N2C(=O)CCC2C(=O)O/N=C(\N)c2cccnc2)cc1 (stereo not shown) [CBK266864] — higher, 111.643
- Cc1ccc(C)c(NC(=O)CCc2c(C)nn3cnnc3c2C)c1 [CBK304358] — lower, 59.0387
- O=S(=O)(NCCc1csc(-c2cccnc2)n1)c1cccnc1 [CBK287546] — lower, 78.8747
- CC1(C)Cc2c(ccc3ccccc23)C(NC(Cc2c[nH]c3ccccc23)C(=O)O)=N1 (stereo not shown) [CBK262569] — higher, 96.5061
- CCN(CC)CCCNc1nccc(-c2cn(C)nc2C)n1 [CBK306654] — lower, 51.9609
- COC(=O)c1sccc1NS(=O)(=O)c1ccc(C(F)(F)F)cc1[N+](=O)[O-] [CBK004510] — higher, 94.708
- O=c1c2[nH]c3ccccc3c2ncn1Cc1ccccc1 [CBK287809] — higher, 124.523
- Cc1nccn1CC1(O)CCN(C(=O)C(C)c2ccccc2)CC1 (stereo not shown) [CBK285388] — lower, 80.7191
- CN1CCN(C(=O)COc2ccc(S(=O)(=O)Nc3ccc(Cl)cc3)cc2)CC1 [CBK268248] — lower, 91.118
- CC(CNC(=O)COc1ccc2ccccc2c1Br)CN(C)C (stereo not shown) [CBK267369] — higher, 120.615
- O=C(CCc1ccccc1)Nc1cccc2nsnc12 [CBK265680] — higher, 108.215
- Nc1ncnc(NCCc2ccc(Cl)cc2)c1[N+](=O)[O-] [CBK267351] — higher, 100.751
- CCOC(=O)c1cnn(C2CCCN(Cc3cc[nH]n3)C2)c1 (stereo not shown) [CBK305125] — lower, 30.4779
- N=c1n(CCCOc2ccc(Br)cc2)c2ccccc2n1CC(N)=O [CBK268786C] — lower, 69.5847
- O=C(O)c1ccc(NS(=O)(=O)c2ccc(Cl)cc2)cc1O [CBK200023] — lower, 71.6743
- O=C(Nc1c[nH]c(=O)[nH]c1=O)c1ccc(Oc2ccc(C(=O)Nc3c[nH]c(=O)[nH]c3=O)cc2)cc1 [CBK261184] — higher, 97.3495
- CC(=O)c1ccc(-c2nc(NC(=O)CC#N)cnc2-c2ccc(F)c(Cl)c2)s1 [CBK036841] — lower, 70.9638
- COc1ccc(C(NC(=O)c2ccc(N3C(=O)CCC3=O)cc2)c2ccccc2)cc1 (stereo not shown) [CBK285737] — higher, 108.56
- NC(=O)CCN(CCC(N)=O)S(=O)(=O)c1ccc(N)cc1 [CBK262134] — lower, 87.2388
- O=C(c1ccc2[nH]ccc2c1)N1CCCC1 [CBK149074] — higher, 100.871
- CCOc1ccc(Cl)cc1CN(C)C(=O)NCC(c1ccco1)N(C)C (stereo not shown) [CBK307013] — lower, 78.4416
- CN(Cc1ccccc1)C(=O)c1c[nH]nc1C1CCCN(CC2CCCCC2)C1 (stereo not shown) [CBK286489] — lower, 91.1309
- CCOc1ccc(N)cc1S(N)(=O)=O [CBK010112] — higher, 97.8245
- COc1ccc2c(c1)c(CN1CCCN(S(=O)(=O)c3ccc(-c4ccccc4)cc3)CC1)cn2C [CBK063125] — lower, 54.8316
- FC(F)(F)Oc1cccc(-c2cn3ccnc3c(NCCc3ccccn3)n2)c1 [CBK038017] — higher, 126.679
- O=C(O)c1cccc(N(CCO)CCO)c1 [CBK262419] — higher, 96.8679
- CCc1nc2cccnc2n1CCNC(=O)Cc1cccs1 [CBK283639] — lower, 81.6489
- CN(CCC1CCN(c2ccncc2)CC1)C(=O)c1cc2sccc2[nH]1 [CBK305468] — lower, 57.0169
- CCOC(=O)C1(C2CCCCC2)CCN(C(=O)c2ccc(OC(F)(F)F)cc2)CC1 [CBK136921] — lower, 81.1118
- O=C(CN1CCN(Cc2ccc3c(c2)OCO3)CC1)Nc1ccc(SC(F)(F)F)cc1 [CBK074385] — lower, 80.6809
- O=C1C2CCCCC2C(=O)N1CCCN1CCC(c2nc(-c3ccc(F)cc3)c3ccccn23)CC1 (stereo not shown) [CBK035972] — higher, 103.288
- CCCCCC1=NN(C(=O)OCC)C(O)(C(F)(F)F)C1 (stereo not shown) [CBK027739] — lower, 70.9161
- Cc1csc2ncc(C(=O)NCc3ccccc3)c(=O)n12 [CBK287290] — lower, 77.0045
- COc1ccc(S(=O)(=O)Nc2ccccc2C(=O)O)cc1C(=O)O [CBK264084] — higher, 120.028
- CSCCC(=O)NCc1ccc(-c2csnn2)cc1 [CBK149304] — higher, 100.062
- Cn1c(C(=O)NC2CCOC(C)(C)C2)cc2ccccc21 (stereo not shown) [CBK304344] — lower, 76.3029
- NC(=O)COc1cccc(/C=C2/SC(Nc3cccc(C(=O)O)c3)=NC2=O)c1 [CBK265027] — lower, 91.5057
